The record followed here is PubChem BioAssay AID485344 (National Center for Advancing Translational Sciences (NCATS), 2010).

The whole screen tested about 340,000 compounds, of which about 6,900 (2%) were called active. Cut-off read from the data, not from the text of the source: active = inhibition above about 30%; inactive = below that, where a call was filed. The entries are a selection whose mix differs from that of the whole data set. Entries without a call were filed so in the source.

Chain of UniProt P14416 (P14416 whole entry, looked up): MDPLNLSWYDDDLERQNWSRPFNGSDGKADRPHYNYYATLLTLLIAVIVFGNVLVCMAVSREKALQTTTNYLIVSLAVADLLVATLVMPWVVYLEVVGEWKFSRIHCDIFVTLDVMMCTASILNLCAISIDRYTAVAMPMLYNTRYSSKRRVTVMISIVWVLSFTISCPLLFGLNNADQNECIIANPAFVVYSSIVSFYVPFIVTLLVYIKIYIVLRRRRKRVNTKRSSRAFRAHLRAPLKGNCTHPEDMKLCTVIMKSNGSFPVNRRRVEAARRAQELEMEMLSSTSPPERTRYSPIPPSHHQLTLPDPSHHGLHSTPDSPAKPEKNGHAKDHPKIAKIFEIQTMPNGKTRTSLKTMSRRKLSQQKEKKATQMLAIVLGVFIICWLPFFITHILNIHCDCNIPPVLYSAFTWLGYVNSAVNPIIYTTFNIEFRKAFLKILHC

The target of the assay is D(2) dopamine receptor (Homo sapiens) (UniProt P14416). In words: HTS Assay for Allosteric Antagonists of the Human D2 Dopamine Receptor: Primary Screen for Antagonists. Note: 0% is about no effect. Particulars: HEK293 TREx D2 cells, calcium flux, dopamine EC80; at 10 µM; stronger effect = higher value. The essentials:
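Cells plated overnight at 30 C with tetracycline; no-wash calcium dye, 30–90 min RT; 10 s baseline; compound pinned; 180 s read; EC80 dopamine added; another 180 s read.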
For `COc1ccccc1CNC(=O)C(=O)NCC(c1cccs1)S(=O)(=O)c1ccc(F)cc1` (stereo unspecified), the inhibition is -4.81%.
Then `CC1=C(C(=O)OCC2CCCCC2)C(c2ccc(F)cc2F)CC(=O)N1` (stereo unspecified), with 2.59%; and `Oc1c(C(c2ccccc2)N2CCN(Cc3ccccc3)CC2)sc2nc(-c3ccco3)nn12` (stereo unspecified), with -16.7%; and `Cc1ccc(CNC(=O)C2CCN(S(=O)(=O)N3CCC(C)CC3)CC2)cc1`, with -19.1%.
Then `Cc1ccc(OCC(=O)Nc2c(C(=O)c3ccccc3)oc3ccccc23)cc1C`, with -0.353%; and `CCc1ccc(NC(=O)CC2C(=O)N(c3cccc(C)c3)C(=O)N2Cc2cccs2)cc1` (stereo unspecified), with 4.65%.
Regarding `Cn1c(Cl)c(/C=N/OC(=O)c2ccc(Cl)cc2)c2ccccc21`, the inhibition is active: 56.1%.
With `COc1cc(C(=O)Nc2ccc3nn(-c4ccc(F)cc4)nc3c2)cc(OC)c1OC`, the inhibition came out at 4.33%.
Then `CCCCn1c(=O)n(-c2ccc(Br)cc2F)c(=O)c2c3c(sc21)CN(C(C)=O)CC3`, with -11.2%; and `CCOc1ccccc1NC(=O)CSc1nc2ccccc2c2nc(CCn3cncc3C)nn12`, with 3.8%.
For `Cc1ccc(NC2=C(c3ccc(C(F)(F)F)cc3)C(=O)c3ccccc32)cc1F` the value was 19.2%.
Then `O=C(NCC(c1cccnc1)N1CCc2ccccc21)c1ccccc1Br` (stereo unspecified), with 13%; and `O=C(Cn1c(=O)n(Cc2ccco2)c(=O)c2cccnc21)Nc1ccccc1F`, with 7.18%.
Consider `CCCN(CCC)C(=O)Cn1c(=O)n(-c2cccc(C(F)(F)F)c2)c(=O)c2c(C)c(C)sc21`, for which the inhibition was found to be 10.4%.
For the compound `COc1cc2c(-c3ccccc3C)nc3c(c(C)nn3-c3ccccc3)c2cc1OC`, the inhibition was -13.3%.
For `CCOc1cc(C(=O)Nc2ccc(-c3nc4cc(C)ccc4o3)cc2)cc(OCC)c1OCC` the value was 10.2%; for `O=C(Nc1ccc2nc(SCC(=O)N3CCCC3)sc2c1)c1ccccc1`, -14.5%; for `COc1ccc(NC(=O)c2ccc3nc(CCc4ccccc4)oc3c2)cc1`, 16.5%.
On to `CCCCC12CN3CC(C)(CN(C1)C3c1cc(Br)ccc1O)C2=O` (stereo unspecified), for which the inhibition was found to be 4.88%.
For `CC(=O)c1cc(-c2ccc(F)cc2)n(CCC(=O)NCc2ccccc2C)c1C` the value was -8.71%.
Then `CS(=O)(=O)c1ccc2nc(NC(=O)CS(=O)(=O)c3ccc(Cl)cc3)sc2c1`, with -3.14%; and `CCOC(=O)CNC(=O)Nc1cc(C(=O)NCc2cccc(F)c2)ccc1N1CCCC1`, with 5.35%.
Then `COc1ccccc1N1CCN(C/C(C)=C/c2ccccc2)CC1`, with active: 74.1%; and `Cc1ccc(-c2nc3scc(CCNC(=O)c4cccc(Br)c4)n3n2)cc1`, with -7.98%.
As for `COc1ccccc1NC(=O)C1CCCN(c2nnc(C)c3c(C)n(-c4ccccc4)nc23)C1` (stereo unspecified), the inhibition is -9.01%.
For `Cc1ccc(C)n1-c1nnc(N2CCC(C(=O)NCc3ccccc3Cl)CC2)s1` the value was 3.04%; for `Cc1ccc(-c2nc(CCNC(=O)C(=O)Nc3ccc(C)c(C)c3)cs2)cc1`, 7.33%; for `COc1ccc(OC)c(NC(=O)CCN2CCN(c3ccccc3OC)CC2)c1`, active: 71.9%.
For `Cc1oc(-c2ccccc2F)nc1CN1CCC(C(=O)NCCC2=CCCCC2)CC1` the value was active: 31.8%; for `COc1ccc(S(=O)(=O)N(Cc2nc(-c3ccc(C)cc3)no2)C2CCCCC2)cc1`, 16.2%.
Then `O=C1[C@@H]2CSC(c3ccc(F)cc3)N2C(=O)N1c1ccc(Cl)cc1` (stereo partly specified), with -10.9%; and `COc1ccc(CNC(=O)c2cccc(N3CCCS3(=O)=O)c2)cc1`, with -4%; and `CCc1ccc(-n2c(=O)c3c4c(sc3n(Cc3ccc(F)cc3)c2=O)CCCC4)cc1`, with 11.6%.
Turning to `Nc1ncc(S(=O)(=O)NCc2cccc(Cl)c2)cn1`, the inhibition is -15.5%.
For `Cc1ccc2oc(=O)c3cnn(CC(=O)NCc4ccccc4Cl)c3c2c1` the value was -11.9%; for `CCSC1=N/C(=C\c2ccc3c(c2)OCO3)C(=O)S1`, active: 30.4%; for `Cc1ccccc1CNC(=O)c1c(C)oc2c1C1=NCCN1C=N2`, -2.67%.
Then `CCc1cc(=O)oc2cc(C)cc(OCC(=O)NC(Cc3c[nH]c4ccc(O)cc34)C(=O)O)c12` (stereo unspecified), with active: 48.3%; and `C/C(=N\OCc1cccc(C(=O)O)c1)c1ccc(Cl)cc1`, with active: 55.7%; and `Cc1ccccc1Cn1cc(S(=O)(=O)c2ccc(Cl)cc2)c(=O)c2cc3c(cc21)OCO3`, with 15.7%.
For `O=c1c(O)c(-c2cccs2)oc2ccc(Cl)cc12` the value was active: 51.4%; for `COc1cccc(N2CCN(C(=O)C3CCCN(S(=O)(=O)c4ccc(Br)s4)C3)CC2)c1` (stereo unspecified), 3.25%.
For the compound `Cc1c(NC(=O)c2nc3ccccc3n(C)c2=O)cccc1[N+](=O)[O-]`, the inhibition was 4.41%.
Then `CC(C)c1ccc(NC(=O)CSc2ncc3c(n2)-c2ccccc2N(C)S3(=O)=O)cc1`, with -5.95%.
For the compound `COc1ccc(OCCn2c(C3CC(=O)N(c4ccc(F)cc4)C3)nc3ccccc32)cc1` (stereo unspecified), the inhibition is -1.95%.
Then `COc1ccc(Nc2cc(C(=O)NCCc3ccccc3)c3ccccc3n2)cc1OC`, with 11.7%; and `CCCN(C(=O)Cn1ncc2c(=O)oc3ccccc3c21)c1cccc(C)c1`, with 12.7%.
For `CCCCOC(=O)c1ccc(NS(=O)(=O)c2c(C)nc3scc(C)n3c2=O)cc1` the value was -6.79%; for `Cc1ccc(CNC(=O)Cn2ncc3c(C)n(Cc4ccc(Cl)cc4)c(C)c3c2=O)cc1`, 2.1%; for `COc1ccccc1Nc1cc(C)nc2nc(-c3ccccc3)nn12`, 7.57%.
Then `CCC(C)NC(=O)Cn1c(=O)n(Cc2ccc(C(=O)NCCCOC)cc2)c(=O)c2ccccc21` (stereo unspecified), with -15.5%; and `Cc1ccc(NC(=O)c2ccc(NC(=O)N3CCSc4ncccc43)cc2)cc1Cl`, with 5.37%.
For `CCc1ccc(-n2nc3cc(C)c(NC(=O)c4cc(Cl)ccc4OC)cc3n2)cc1`, the inhibition was determined as 0.927%.
Then `O=C(Cn1cc(S(=O)(=O)Cc2ccc(F)cc2)c2ccccc21)NCCc1ccccc1`, with -4.31%; and `COc1ccc(NS(=O)(=O)c2cc3[nH]c(=O)c(=O)[nH]c3cc2C)cc1OC`, with -2.24%; and `Cc1ccc2c(=O)cc(C(=O)Nc3sc4c(c3C(=O)NCc3ccco3)CCC4)oc2c1C`, with 5.26%.
Turning to `Cn1c(=O)c2nc(SCC(=O)Nc3cc(Cl)ccc3Cl)n(C)c2n(C)c1=O`, the inhibition is 8.53%.
For `c1ccc(CNc2nc3ccccc3c3nc(-c4ccccc4)nn23)cc1` the value was -1.97%; for `NC(=O)CSc1nc2c(oc3ccccc32)c(=O)n1-c1ccccc1F`, 6.87%; for `COc1cccc(CNC(=O)CSc2ccc(-c3sc(-c4ccccc4)nc3C)nn2)c1`, 3.25%.
As for `CCOc1ccc(C(=O)NCC(c2ccco2)S(=O)(=O)c2ccc(C)cc2)cc1` (stereo unspecified), the inhibition is -27.4%.

What is called inhibition is the change of the read-out against control, counted positive when it falls.
